Measured values from PubChem BioAssay AID1347165 (National Center for Advancing Translational Sciences (NCATS), 2019).
About 5,700 (2.6%) of roughly 220,000 compounds were called active. Inconclusive means that the source gave no clear call. Such entries were picked first, then a sample of the others. Calls follow the shape of the dose curve; as a rule, active = well fitted inhibition curve with a large enough effect; inconclusive = small, poorly fitted or top-dose-only effect; inactive = no such curve, though single readings can be large or run the other way. Where the call is inconclusive, the potency comes from a doubtful curve fit.
Also: nearly all actives have a fitted effect of over 70% in size.
Potency is read from the fitted curve at half-maximal effect; tags tell the direction and shape of the fitted curve.

Each compound was assayed against Lysine-specific demethylase 5B (Homo sapiens) (UniProt Q9UGL1) (assay: Primary screen for KDM5B Histone Demethylases FDH-coupled qHTS). Conditions: FDH-coupled NADH fluorescence (FDH is formaldehyde dehydrogenase); series mostly up to 57.7 µM.
Chain of UniProt Q9UGL1 (Q9UGL1 whole entry, looked up): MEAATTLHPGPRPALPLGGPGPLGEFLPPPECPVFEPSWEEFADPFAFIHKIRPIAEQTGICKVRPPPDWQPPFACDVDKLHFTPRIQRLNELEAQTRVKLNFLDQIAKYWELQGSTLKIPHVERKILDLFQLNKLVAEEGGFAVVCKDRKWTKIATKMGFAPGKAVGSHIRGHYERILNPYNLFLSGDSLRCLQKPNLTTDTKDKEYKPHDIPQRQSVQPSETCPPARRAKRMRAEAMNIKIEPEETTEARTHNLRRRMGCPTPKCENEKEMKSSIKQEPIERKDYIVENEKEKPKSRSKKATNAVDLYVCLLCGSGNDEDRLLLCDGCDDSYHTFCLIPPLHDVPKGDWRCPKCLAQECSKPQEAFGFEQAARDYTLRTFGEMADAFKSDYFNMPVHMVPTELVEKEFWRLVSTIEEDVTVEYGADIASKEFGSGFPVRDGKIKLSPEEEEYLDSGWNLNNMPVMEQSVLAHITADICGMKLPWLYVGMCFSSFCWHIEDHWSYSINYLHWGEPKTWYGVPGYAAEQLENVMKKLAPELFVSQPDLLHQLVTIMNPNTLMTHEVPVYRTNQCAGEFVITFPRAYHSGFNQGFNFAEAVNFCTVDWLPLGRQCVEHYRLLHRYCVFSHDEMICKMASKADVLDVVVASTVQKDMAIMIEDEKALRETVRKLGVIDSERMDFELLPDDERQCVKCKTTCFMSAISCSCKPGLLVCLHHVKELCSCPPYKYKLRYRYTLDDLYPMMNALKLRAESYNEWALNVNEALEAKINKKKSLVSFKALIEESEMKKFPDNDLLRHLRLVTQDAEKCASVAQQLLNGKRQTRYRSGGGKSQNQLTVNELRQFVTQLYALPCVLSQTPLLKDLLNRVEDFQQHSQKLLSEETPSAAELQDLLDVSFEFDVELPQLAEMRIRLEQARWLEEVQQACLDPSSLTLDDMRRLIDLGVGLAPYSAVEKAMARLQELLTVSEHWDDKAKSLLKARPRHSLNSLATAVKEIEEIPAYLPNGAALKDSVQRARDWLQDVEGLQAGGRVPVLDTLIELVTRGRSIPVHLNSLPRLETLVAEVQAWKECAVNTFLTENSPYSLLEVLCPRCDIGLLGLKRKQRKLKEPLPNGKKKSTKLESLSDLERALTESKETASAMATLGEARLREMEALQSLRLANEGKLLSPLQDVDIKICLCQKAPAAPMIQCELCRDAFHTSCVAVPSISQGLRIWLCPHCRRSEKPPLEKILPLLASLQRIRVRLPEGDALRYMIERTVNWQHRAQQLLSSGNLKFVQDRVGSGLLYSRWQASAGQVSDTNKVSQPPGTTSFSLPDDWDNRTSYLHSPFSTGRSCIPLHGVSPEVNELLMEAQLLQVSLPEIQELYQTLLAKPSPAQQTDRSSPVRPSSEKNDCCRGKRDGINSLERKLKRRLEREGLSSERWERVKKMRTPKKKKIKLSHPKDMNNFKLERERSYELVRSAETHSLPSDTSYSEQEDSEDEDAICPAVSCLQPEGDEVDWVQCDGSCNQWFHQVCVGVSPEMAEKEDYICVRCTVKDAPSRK
Outline: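 Coupled FDH/NAD⁺ fluorescence readout. KDM5BΔAP 200 nM final; compound titration, 10 min RT preincubation; substrate mix 12.5 µM H3K4me3, 25 µM 2-OG, 50 µM Fe(II), 100 µM ascorbate, 0.25 mM NAD⁺, 0.25 U/mL FDH; ΔRFU over 30 min.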
For `Cc1nn(-c2ccc(F)cc2)c(-n2cccc2)c1C(=O)N1CCN(c2ccccc2F)CC1`, the Potency was inconclusive: 6.31 µM [inhibitor, partial curve, poor fit].
With `COc1ccc(-c2nc(C)nc3c2CCN(CCC(C)C)CC3)cc1` the Potency was inconclusive: 22.4 µM [inhibitor, partial curve, poor fit].
With `COc1ccc(C)cc1B(O)O` the Potency was “inactive”.
`O=C(C1CCCN(c2nc3ncccc3o2)C1)N1CCOCC1` (stereo not drawn) was tested, and the Potency was active: 39.8 µM.
With `CC1=C(C(=O)Nc2ccc(F)c(F)c2)C(c2ccc(F)cc2)NC(=S)N1` (stereo not drawn) the Potency was “inactive”.
For `CN(C(=O)C1CCN(c2oc(-c3ccco3)nc2C#N)CC1)c1ccccc1`, the Potency was inconclusive: 28.2 µM [inhibitor, partial curve, poor fit].
In the case of `Cc1c(C)c2ccc(OCc3nn[nH]n3)c(C)c2oc1=O`, the Potency is reported as inconclusive: 2 µM [inhibitor, full curve, poor fit].
With `COc1ccc(CN2CCC(C3CCN(C(C)=O)CC3)C2)c(Cl)c1OC` (stereo not drawn) the Potency was inconclusive: 17.8 µM [inhibitor, partial curve].
For `CCOC(=O)c1cc2c(=O)n3ccccc3nc2n(CC2CCCO2)c1=NC(=O)c1cc(C)cc(C)c1` (stereo not drawn), the Potency was inconclusive: 31.6 µM [inhibitor, partial curve, poor fit].
`Cc1[nH]c2ccccc2c1C1(O)C(=O)N(Cc2ccc(Cl)cc2)c2ccccc21` (stereo not drawn) was tested, and the Potency was inconclusive: 15.8 µM [inhibitor, partial curve, poor fit].
For `CN1C[C@@H](NS(=O)(=O)c2ccc(C#N)cc2)C[C@H]1c1nc(-c2ccc(Cl)cc2)no1`, the Potency was inconclusive: 22.4 µM [inhibitor, single point].
For `CCc1cccc(C)c1Nc1c(-c2cccc(O)c2)nc2sccn12`, the Potency was inconclusive: 17.8 µM [inhibitor, partial curve, poor fit].
In the case of `N#Cc1ccc(C(=O)N[C@@H]2CN(Cc3ccccc3)C[C@H]2CO)cc1`, the Potency is reported as “inactive”.
With `c1ccc(-c2cnc(CSc3nnc(-c4ccccc4)o3)o2)cc1` the Potency was inconclusive: 28.2 µM [inhibitor, single point].
In the case of `COc1cccc(C(=O)N2CC(Oc3ccccc3-c3nc(-c4ccccc4)no3)C2)c1`, the Potency is reported as inconclusive: 28.2 µM [inhibitor, partial curve, poor fit].
For `O=C(O)c1ccccc1-c1ncc(-c2ccccc2F)o1`, the Potency was inconclusive: 28.2 µM [inhibitor, partial curve, poor fit].
In the case of `CCc1ccc(CNC(=O)c2cc3c(s2)-c2ccccc2OC3)cc1`, the Potency is reported as inconclusive: 28.2 µM [inhibitor, partial curve, poor fit].
`Cc1nc(N2CCCC2)ncc1C(=O)NCc1ccccc1Cl` was tested, and the Potency was inconclusive: 50.1 µM [inhibitor, single point].
With `COc1cccc(-c2ocnc2C(=O)Nc2cc(C)ccc2C)c1` the Potency was inconclusive: 39.8 µM [inhibitor, single point].
`Cc1cccc(NCCC#N)c1C` was tested, and the Potency was “inactive”.
For `CC(C)NC(=O)N1CCCC(c2nnc3n2CCNC3)C1` (stereo not drawn), the Potency was inconclusive: 100 µM [inhibitor, partial curve, poor fit].
With `C/C(=N\O)c1ccc(OCCCCCOc2ccc(/C(C)=N/O)cc2)cc1` the Potency was inconclusive: 35.5 µM [inhibitor, single point].
`Cc1ccccc1N1Cc2c(ncnc2N2CCN(Cc3ccccc3)CC2)N(C)CC1=O` was tested, and the Potency was “inactive”.
With `COc1ccc(Cc2nc3nccc(-c4ccncc4)n3n2)cc1` the Potency was “inactive”.
For `COc1ccccc1-n1nc(-c2c(C)nc3scc(CC(=O)NCc4ccco4)n3c2=O)cc1C`, the Potency was active: 28.2 µM.
In the case of `Fc1cccc(Cc2noc(-c3nc(-c4ccc5c(c4)OCO5)no3)n2)c1`, the Potency is reported as active: 25.1 µM.
In the case of `Cc1ccc(Cl)cc1N1CCN(S(=O)(=O)c2ccc3c(c2)CC(=O)N3C)CC1`, the Potency is reported as inconclusive: 7.08 µM [inhibitor, partial curve, poor fit].
`Cc1ccc(-c2cc3c(=O)n(CCNC(=O)c4ccc5ccccc5n4)ccn3n2)cc1C` was tested, and the Potency was inconclusive: 15.8 µM [inhibitor, partial curve].
In the case of `CC(SC(C)c1ccc(F)cc1)C(=O)NC(N)=O` (stereo not drawn), the Potency is reported as “inactive”.
In the case of `CN1C(=O)C(CC(=O)N(C)C2CCNCC2)(Cc2ccccc2)c2ccccc21` (stereo not drawn), the Potency is reported as “inactive”.
`O=c1cc(-c2ccccc2)c2ccc(O)cc2o1` was tested, and the Potency was inconclusive: 39.8 µM [inhibitor, single point].
`CCc1ccc(CNC(=O)c2cnc3sc(N(CC)CC)nn3c2=O)cc1` was tested, and the Potency was inconclusive: 28.2 µM [inhibitor, partial curve, poor fit].
In the case of `CC1=C(C(=O)Nc2ccccc2C)C(c2ccco2)C(C#N)=C(SCC(=O)c2ccc(F)cc2)N1` (stereo not drawn), the Potency is reported as “inactive”.
For `COCCNC(=O)C(C)[C@@H]1CC[C@@]2(C)CC[C@H](NC(=O)c3cnccn3)[C@@H](C)[C@@H]2[C@H]1O` (stereo partly drawn), the Potency was inconclusive: 35.5 µM [inhibitor, single point].
In the case of `CCn1ccc(C(=O)N2CCC(CCOC)(NS(C)(=O)=O)CC2)n1`, the Potency is reported as “inactive”.
For `CCCOc1ccc(-c2nc(C#N)c(N3CCCC3)o2)cc1`, the Potency was inconclusive: 2 µM [inhibitor, full curve, poor fit].
In the case of `CCCN(CCC)S(=O)(=O)NC1CCN(c2ncccn2)CC1`, the Potency is reported as “inactive”.
`Cc1ccc(NC(=O)N2CC(C)Oc3ccc(Cl)cc32)c(C)c1` (stereo not drawn) was tested, and the Potency was “inactive”.
In the case of `CC(C(=O)NCc1ccc(Cl)cc1)n1ccc2cc(S(=O)(=O)N3CCCC3)ccc21` (stereo not drawn), the Potency is reported as inconclusive: 15.8 µM [inhibitor, partial curve, poor fit].
With `COc1ccc(CNC(=O)Cn2nc3n(c2=O)CCCC3)cc1` the Potency was “inactive”.
`CCc1ccc(C(O)(CC)C(CN2CCOCC2)c2ccccc2)cc1` (stereo not drawn) was tested, and the Potency was inconclusive: 39.8 µM [inhibitor, single point].
For `COc1ccc(CN2CCC3(CC(C)=NO3)C2)cc1` (stereo not drawn), the Potency was inconclusive: 31.6 µM [inhibitor, partial curve].
In the case of `CCC(CC)C(=O)NC[C@@H]1C=C(C)[C@H](Cc2nc3c(C)cccc3[nH]2)C[C@H]1C(C)C`, the Potency is reported as “inactive”.
`Nc1ccc(N=Cc2ccc(Cl)cc2Cl)cc1Cl` was tested, and the Potency was inconclusive: 28.2 µM [inhibitor, partial curve, poor fit].
`NCCc1cccc(CN2CCCC(COc3ccccc3F)C2)c1` (stereo not drawn) was tested, and the Potency was “inactive”.
In the case of `COCC(=O)N[C@H]1CO[C@H]2[C@@H]1OC[C@H]2O`, the Potency is reported as “inactive”.
For `CCOc1ccccc1N(CC)C(=O)c1cc2c(=O)n(CC)c3ccccc3c2s1`, the Potency was inconclusive: 20 µM [inhibitor, partial curve, poor fit].
`CC(C)CSc1nnc(SCC(=O)NCc2ccccc2)s1` was tested, and the Potency was “inactive”.
With `O=C(COc1ccc2nc3n(c(=O)c2c1)CCCCC3)NC1CC1` the Potency was “inactive”.
In the case of `O=C(NCCc1ccc(F)cc1)C1CN(c2ccc(F)cc2)C(=O)N1` (stereo not drawn), the Potency is reported as inconclusive: 15.8 µM [inhibitor, partial curve].
For `O=C(/C=C/c1ccc(Cl)cc1Cl)c1ccccc1OC(F)F`, the Potency was inconclusive: 12.6 µM [inhibitor, partial curve, poor fit].
For `CCCn1ccc2c(OCC(=O)Nc3ccc(C(F)(F)F)cc3)cccc2c1=O`, the Potency was inconclusive: 31.6 µM [inhibitor, partial curve, poor fit].
`O=C(Nc1ccc(Cl)c(C(F)(F)F)c1)c1cc2nc(-c3ccc4c(c3)OCO4)cc(C(F)(F)F)n2n1` was tested, and the Potency was inconclusive: 35.5 µM [inhibitor, single point].
For `Cc1cc(C)cc(NS(=O)(=O)c2ccc3[nH]cc(C(=O)NCc4ccco4)c(=O)c3c2)c1`, the Potency was inconclusive: 31.6 µM [inhibitor, single point].
`O=C(NC1CCN(c2cc(-c3cccs3)[nH]n2)C1)c1cccnc1` (stereo not drawn) was tested, and the Potency was inconclusive: 28.2 µM [inhibitor, partial curve, poor fit].
With `CC(C)Cc1nc2nccc(-c3ccsc3)n2n1` the Potency was active: 28.2 µM.
`O=C(/C=C/c1ccccc1)Nc1nc(-c2cccs2)ns1` was tested, and the Potency was inconclusive: 44.7 µM [inhibitor, single point].
With `COC(=O)c1sc(NC(=O)COc2c(C)cc(C)cc2C)nc1C` the Potency was “inactive”.
For `Cc1ccc2c(c1)c(=O)c1ccccc1n2CCCC(=O)Nc1ccc(Cl)cc1C`, the Potency was inconclusive: 3.16 µM [inhibitor, full curve, poor fit].
For `O=C(Nc1cccc2cccnc12)N1CCCCCC1`, the Potency was “inactive”.
With `Cc1ccc(NC(=O)N2CCC(CCNC(=O)c3sccc3C)CC2)cc1` the Potency was “inactive”.
With `COc1cc(NC(=O)C2CCN(c3nnc(C)c4c(C)n(-c5ccccc5)nc34)CC2)cc(OC)c1` the Potency was inconclusive: 31.6 µM [inhibitor, partial curve, poor fit].
`Cc1ccc2c(C)c(C(=O)NCC(c3ccc(Cl)cc3)N3CCOCC3)oc2c1` (stereo not drawn) was tested, and the Potency was inconclusive: 17.8 µM [inhibitor, partial curve, poor fit].
With `CCOc1ccc(NC(=O)c2ccc(Cn3ccn4nc5c(c4c3=O)CCCC5)cc2)cc1` the Potency was inconclusive: 39.8 µM [inhibitor, single point].
For `Cc1cccc(C)c1NC(=O)Cn1c(=O)n(Cc2ccccc2Cl)c(=O)c2cccnc21`, the Potency was inconclusive: 17.8 µM [inhibitor, partial curve, poor fit].
`Cc1c(C)c2ccc(OC(C)C(=O)NCCCN3CCOCC3)c(C)c2oc1=O` (stereo not drawn) was tested, and the Potency was inconclusive: 28.2 µM [inhibitor, partial curve, poor fit].
For `CS(=O)(=O)N1CCc2ccc(C(=O)Nc3ccc(Cl)c(C(F)(F)F)c3)cc21`, the Potency was inconclusive: 28.2 µM [inhibitor, single point].
`CCOC(=O)c1ccc(NC(=O)CSc2nnc(-c3ccncc3)n2-c2ccccc2)cc1` was tested, and the Potency was “inactive”.
